Assay results: PubChem BioAssay (NCATS)
The shares of active, inactive and inconclusive entries below differ from those in the screen. Potencies of inconclusive entries are left out as doubtful fits. Active and inactive are the calls of the source. Calls come from the whole dose curve; as a rule, active = well fitted curve in the direction sought with a large enough effect; inconclusive = small, poorly fitted or top-dose-only effect, or another doubt; inactive = no such curve, though single readings can be large; an effect the other way counts as inactive or inconclusive.

Experiments:
[1] = BET inhibitor-based combinations targeting novel dependencies in MECOM-rearranged (r) AML: MV-4-11 cell line (AID 2202233); details: MV-4-11 AML viability, CellTiter-Glo luminescence, 48 h; viability, % of control: at 46 µM (top of the series) unless noted; note: nearly all actives have a fitted effect of over 45% in size;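 for viability, % of control: plate controls were DMSO for no effect and blank wells for full effect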
How it was run: (§1)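 Luminescent ATP readout (CellTiter-Glo, 15 min at room temperature) after 48 hr drug exposure gave viability. Dose-response curves, normalized to DMSO and empty-well controls, were summarized as area under the curve and its mean-centred Z-score.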

[2] = BET inhibitor-based combinations targeting novel dependencies in MECOM-rearranged (r) AML: HNT-34 cell line (AID 2202234); note: nearly all actives have a fitted effect of over 35% in size;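 for viability (% of control): plate controls were vehicle wells for no effect and cell-free wells for full effect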
How it was run: as §1

[3] = BET inhibitor-based combinations targeting novel dependencies in MECOM-rearranged (r) AML: AML-191 cell line (AID 2202236; note: nearly all actives have a fitted effect of over 35% in size;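 for viability (% of control): plate controls were vehicle wells for no effect and wells without cells for full effect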)
How it was run: (§2)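 Luminescent ATP readout (CellTiter-Glo) after 48 hr drug exposure gives viability. Curves span 11 concentrations and are normalized to DMSO and empty wells. Activity is reported as area under the curve and its Z-transform within each cell line.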

[4] = BET inhibitor-based combinations targeting novel dependencies in MECOM-rearranged (r) AML: AML-194 cell line (AID 2202237; note: nearly all actives have a fitted effect of over 40% in size;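 for viability (% of control): plate controls were vehicle wells for no effect and wells without cells for full effect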)
How it was run: as §2

[5] = BET inhibitor-based combinations targeting novel dependencies in MECOM-rearranged (r) AML: UCSD-AML1 cell line (AID 2202235); details: UCSD-AML1 AML cells viability, CellTiter-Glo, 48 h; viability (% of control): at 46 µM (top of the series); note: nearly all actives have a fitted effect of over 40% in size;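 for viability (% of control): plate controls were DMSO vehicle wells for no effect and blank wells for full effect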
How it was run: as §1
Potency is the fitted concentration of half-maximal effect; tags give direction and shape of the fitted curve.

Row | Structure (SMILES) | Potency [1] | Potency [2] | Potency [3] | Potency [4] | Potency [5] | viability, % of control [1] | viability (% of control) [2] | viability (% of control) [3]
1 | C/C=C/C/C=C/CCC(=O)[C@H]1O[C@H]1C(N)=O | active: 20.9 µM | active: 14.8 µM | inconclusive [inhibitor, single point] | active: 26.3 µM |  |  |  | 
2 | CCC(=O)NC[C@H](Cc1ccc(OCCc2nc(-c3ccccc3)oc2C)cc1)N/C(C)=C\C(=O)c1ccc(C(F)(F)F)cc1 | active: 23.5 µM | inconclusive [inhibitor, single point] | inconclusive [inhibitor, single point] | inconclusive [inhibitor, single point] | inconclusive [inhibitor, single point] |  |  | 
3 | CC(C)(C)NC(=O)[C@H]1CC[C@H]2[C@@H]3CC[C@H]4NC(=O)C=C[C@]4(C)[C@H]3CC[C@]12C | inconclusive [inhibitor, partial curve, poor fit] | inactive | inactive | inactive |  |  |  | 
4 | NS(=O)(=O)c1cc2c(cc1Cl)NC(C(Cl)Cl)NS2(=O)=O (stereo unspecified) | inactive | inactive | inconclusive [inhibitor, partial curve, poor fit] |  |  |  |  | 
5 | CCCCCCCCCCCCCCCCOCCCOP(=O)(O)COC(CO)Cn1ccc(N)nc1=O (stereo unspecified) | inactive | inactive | inactive |  |  |  |  | 
6 | CN1C/C=C/CCOc2cccc(c2)-c2ccnc(n2)Nc2cccc(c2)C1 | active: 0.417 µM | active: 0.417 µM | active: 0.296 µM |  |  |  |  | 
7 | CN1CCN2c3ncccc3Cc3ccccc3C2C1 (stereo unspecified) | inactive | inactive | inactive |  |  |  |  | 
8 | O=C(Nc1cccc(Cl)c1)Nc1ncc(CCNc2ncnc3ccsc23)s1 | inconclusive [inhibitor, full curve, poor fit] | inactive | inconclusive [inhibitor, full curve, poor fit] | inconclusive [inhibitor, full curve, poor fit] |  |  |  | 
9 | COc1cccc2c1C(=O)c1c(O)c3c(c(O)c1C2=O)C[C@@](O)(C(C)=O)C[C@@H]3O[C@H]1C[C@H](N)[C@H](O)[C@H](C)O1 | inconclusive [inhibitor, full curve] | inconclusive [inhibitor, full curve, poor fit] | active: 0.186 µM | inconclusive [inhibitor, full curve, poor fit] | inconclusive [inhibitor, full curve, poor fit] |  |  | 
10 | C[C@H]1COC2=C1C(=O)C(=O)c1c2ccc2c1CCCC2(C)C | active: 13.2 µM | inconclusive [inhibitor, partial curve] | inconclusive [inhibitor, partial curve, poor fit] | inconclusive [inhibitor, partial curve, poor fit] | inconclusive [inhibitor, partial curve] |  |  | 
11 | N#CN1CCC[C@@H](n2nc(-c3ccc(Oc4ccc(F)cc4F)cc3)c(C(N)=O)c2N)C1 | inconclusive [inhibitor, partial curve] | inconclusive [inhibitor, partial curve, poor fit] | inconclusive [inhibitor, single point] | inactive | inconclusive [inhibitor, single point] |  |  | 
12 | O=c1cc(-c2ccccc2)oc2cc(O)c(O)c(O)c12 | inconclusive [inhibitor, partial curve, poor fit] | inconclusive [inhibitor, single point] |  | inconclusive [inhibitor, partial curve, poor fit] | inconclusive [inhibitor, full curve] |  |  | 
13 | COc1ccc(CNC(=O)c2cc(-c3cncc(Cl)c3)cnc2-c2ccccn2)nc1OC | inconclusive [inhibitor, single point] | inactive | inactive | inactive |  |  |  | 
14 | CC(C)(C)NC(=O)c1cncn1C1CCN(c2ccc(-c3nnc(C(F)(F)F)o3)cn2)CC1 | active: 5.25 µM | active: 4.68 µM |  | inconclusive [inhibitor, partial curve] | inconclusive [inhibitor, single point] |  |  | 
15 | CC(C)(S)[C@@H](N)C(=O)O |  |  |  |  |  | inactive: 125% [at 5.12 µM] | inactive: 108% [at 5.12 µM] | inactive: 111% [at 5.12 µM]
16 | C[C@]12CC[C@H](O)CC1=CCC1C2CC[C@]2(C)C(n3cnc4ccccc43)=CCC12 (stereo partly specified) | inconclusive [inhibitor, partial curve, poor fit] | inactive | active: 18.6 µM | inactive | inactive |  |  | 
17 | CC1=C(C(=O)Nc2cc3cn[nH]c3cc2F)C(c2ccc(C(F)(F)F)cc2)CC(=O)N1 (stereo unspecified) | inconclusive [inhibitor, full curve] | inconclusive [inhibitor, full curve] | inconclusive [inhibitor, partial curve, poor fit] | inactive | inconclusive [inhibitor, single point] |  |  | 
18 | CCCCOC(=O)NS(=O)(=O)c1sc(CC(C)C)cc1-c1ccc(Cn2ccnc2)cc1 | inconclusive [inhibitor, partial curve, poor fit] | inconclusive [inhibitor, single point] | inconclusive [inhibitor, partial curve] |  |  |  |  | 
19 | C[C@H]1CC2[C@@H]3CCC4=CC(=O)C=C[C@]4(C)[C@@]3(F)[C@@H](O)C[C@]2(C)[C@@]1(O)C(=O)CO (stereo partly specified) | inactive | inactive | inconclusive [inhibitor, full curve, poor fit] | inconclusive [inhibitor, partial curve] | inconclusive [inhibitor, single point] |  |  | 
20 | C[C@@H]1C(=O)OC2[C@H](O)[C@]34[C@H]5C[C@@H](C(C)(C)C)[C@]36[C@@H](OC(=O)[C@@H]6O)O[C@@]4(C(=O)O5)[C@]21O (stereo partly specified) | inactive | inactive | inactive |  |  |  |  | 
21 | O=C(O)c1ccc(-n2nc(-c3ccccc3O)nc2-c2ccccc2O)cc1 | inconclusive [inhibitor, partial curve] | inconclusive [inhibitor, full curve] | active: 16.6 µM | inconclusive [inhibitor, partial curve] |  |  |  | 
22 | CCC(CC)C(c1ccc(Nc2nc3ccccc3s2)cc1)n1cncn1 (stereo unspecified) | inconclusive [inhibitor, partial curve] | inconclusive [inhibitor, single point] | active: 16.6 µM | inconclusive [inhibitor, single point] | inactive |  |  | 
23 | CC(Oc1ccc(O)cc1)(P(=O)(O)O)P(=O)(O)O | inactive | inactive | inactive | inactive |  |  |  | 
24 | O=C(/C=C\n1cnc(-c2cc(C(F)(F)F)cc(C(F)(F)F)c2)n1)NNc1ccccn1 | inconclusive [inhibitor, full curve] | inconclusive [inhibitor, full curve] |  | active: 0.417 µM | active: 0.468 µM |  |  | 
25 | CC(NCCc1ccc(O)cc1)C(O)c1ccc(O)cc1 (stereo unspecified) | inconclusive [inhibitor, partial curve, poor fit] | inactive | inactive |  |  |  |  | 
26 | CC(C)(F)C[C@H](N[C@@H](c1ccc(-c2ccc(S(C)(=O)=O)cc2)cc1)C(F)(F)F)C(=O)NC1(C#N)CC1 | active: 4.68 µM | inconclusive [inhibitor, partial curve, poor fit] | inactive | inconclusive [inhibitor, partial curve, poor fit] |  |  |  | 
27 | CCCCc1ccc(NS(=O)(=O)c2ccc(C)c(C(=O)N3CCN(c4cccc(C)c4C)CC3)c2)cc1 | inconclusive [inhibitor, single point] | inactive |  | inconclusive [inhibitor, partial curve, poor fit] | inactive |  |  | 
28 | C[C@@H](C(=O)Nc1ccc(Cl)cc1)C1CCC(c2ccnc3ccc(F)cc23)CC1 (stereo partly specified) | inconclusive [inhibitor, partial curve] | inconclusive [inhibitor, partial curve, poor fit] |  | inactive | inactive |  |  | 
29 | CC1Cc2ccccc2N1C(=O)Cc1nc(N2CCOCC2)cc(=O)[nH]1 (stereo unspecified) | inconclusive [inhibitor, partial curve] | inconclusive [inhibitor, partial curve] | inconclusive [inhibitor, partial curve] | inconclusive [inhibitor, partial curve] | inconclusive [inhibitor, partial curve] |  |  | 
30 | CC[C@H]1OC(=O)[C@H](C)C(=O)[C@H](C)[C@@H](O[C@H]2O[C@H](C)C[C@H](N(C)C)[C@H]2O)[C@](C)(OC)C[C@@H](C)C(=O)[C@H](C)[C@H]2N(CCCCn3cnc(-c4cccnc4)c3)C(=O)O[C@]12C | inconclusive [inhibitor, partial curve, poor fit] | inconclusive [inhibitor, single point] | inactive | inactive |  |  |  | 
